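Grown in 96-well plates, cells were treated for 48 hours with each compound at five concentrations. Insufficient inhibition: endpoint recorded as highest concentration tested. The concentration for 50% growth inhibition is given as GI50. At the TGI there is no net growth.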
What follows are molecules tested on NCI-H322M lung (assay: NCI anticancer screen, dose series, 48 h).

Row | SMILES | GI50 [µM] | TGI [µM]
1 | CCN1CCN(Cc2ccc(C(=O)Nc3cccc(C#Cc4cccc5[nH]nc(N)c45)c3)cc2C(F)(F)F)CC1 | 1.79 | 5.58
2 | CCOc1ccccc1[C@H]1C(C(=O)c2ccc(Cl)cc2)C2(N[C@@H]1c1ccccc1)C(=O)Nc1ccc(Br)cc12 (stereo not given in full) | 5.96 | > 34.5
3 | O=S(=O)(Nc1cccc(-n2cnc3cc(-c4ccc(O)cc4)ccc32)c1)C1CC1 | 6.36 | 19.5
4 | C=C1CCC2C3(C)COC(c4ccccc4F)OC3CCC2(C)C1CC(O)C1=CCOC1=O (stereo not given) | 49.5 | > 100
5 | COc1cc(OC)c2c3nc4cc(C)c(C)cc4nc3n(CCN(C)C)c2c1 | 12.7 | 26.1
